Results taken from the supplement of paper PMC11417369.
The list shows a part of the results.

system: PfSIP2 AP2 domain 1 (GST-tagged); assay: gcPBM binding intensity (ln(normalized median fluorescence intensity)); higher = stronger DNA binding
Summary of the method: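 An Agilent 4 × 180k array carrying primer-extended double-stranded 36-bp intergenic genomic probes and negative controls received GST-tagged P. falciparum DNA-binding domains expressed in E. coli, about 25 μg on average, for 1 h. The binding buffer contained 1× PBS, 1% milk, 0.2 mg/ml BSA, 0.5% salmon testes DNA and 0.03% Triton X-100. Binding intensity is the top Masliner-normalised natural-log median intensity across replicate spots of either probe orientation, read after Alexa488 anti-GST antibody staining and a 488 nm scan.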

Sequence | gcPBM binding intensity (ln)
TCATAAATTAATAATACATGCATAATATTAAAATGT [TGCATGCA_site5] | 6.94
AAAAATATATAAGAGAGTACATAAAATAAATTAATT [XGTACX_site1534] | 6.87
TTTTTTTTTCCCGTAAATATTGAGACAACCATAATG [CACACA_negctrl_site41] | 7.1
TATTTTTATTTAGGACGTACAAAAATAAATCATATT [XGTACX_site1448] | 7.21
TTAAAAATATATATAACACACACATAATATATATAT [CACACA_site8811] | 8.54
TATAAATATTACGGTAGTACTATACATATATATAAT [XGTACX_site7442] | 7.08
TTAGAAACATTGAAAGCATGCAATATTACTTTATAC [TGCATGCA_site522] | 6.96
TCCTTATATTTGCACACACACACAAGAAAATGAAAA [CACACA_site6613] | 8.3
CATATAAAAAGACACACACACACATATATATATATA [CACACA_site940] | 9.82
ATAAAAAACTCAGAGCGTACATAATTTTTTCTATTT [XGTACX_site2803] | 7.24
TAACCATACATACATACACACACACCCACATATATA [CACACA_site8951] | 7.2
TATATATTCAAATGTGCATGTAAAAAAAAAAAAAAG [TGCATGCA_site126] | 7.36
CAGGAGAGTAAAAGAGTGCGAATTATTATTTTGGAG | 7.88
GGCATATATATATGCACACATACATAAATACATGTG [CACACA_site5999] | 7.5
TCCCTAGTATACCTTAGTACATATATTATTTTGCAC [XGTACX_site2174] | 9.21
AGACATTAATGAAGGTGTACATATATTTGACAGAAT [XGTACX_site655] | 7.23
TATATAATATAATTGACATGCAACCATTTTCGTGAA [TGCATGCA_site458] | 6.84
TCATTCATATGTTACACACACACACGCACATAAAAA [CACACA_site7514] | 7.46
AAGTTGGAAAGGTTATGTACTTATTTTTTAAAATAA [XGTACX_site204] | 6.91
ATCTATATCTATAATACACACTAAAGTAACAGAATA [CACACA_site7370] | 7.14
GTATCTCATTATTCGTGTACTAAACACATAAAAATA [XGTACX_site2262] | 7.84
GATTTACAACACGAACGTACAGAACAAAAAGGAAAA [XGTACX_site6501] | 7.19
TGTTTAAAGGAAAAGGAGTAGTCTATTATATTATCT [CACACA_negctrl_site858] | 6.78
AATGTAAAAGTAAACACACACATATATATATACATA [CACACA_site2484] | 6.85
TATAAAAATAAAAAAAGTACACATAAAAATATATAT [XGTACX_site5189] | 7.22
